In the supplement of paper PMC8813932:
Where a name gives a salt, the structure may show the parent alone. ± gives the standard deviation of the averaged measurements. This is one part of the list. Many values rest on one well or one pass, so single values are uncertain.

Key:
Assay in all cases: log2 surviving fraction relative to plate median (drug vs vehicle, or drug+dl922-947 vs dl922-947 alone); ovarian cancer lines: OVCAR4 is platinum-sensitive while Ov4Cis resists cisplatin and Ov4Carbo carboplatin; higher = more cell survival
Conditions in all cases: compound concentration: 10 uM, 192 h
OVCAR4 = tested on: OVCAR4
Ov4Carbo = tested on: Ov4Carbo
Ov4Cis = tested on: Ov4Cis
[1] = dl922-947 oncolytic adenovirus co-treatment: MOI 10
[2] = dl922-947 oncolytic adenovirus co-treatment: none

Row | Structure (SMILES) | log2 surviving fraction (OVCAR4; [1]) | log2 surviving fraction (OVCAR4; [2]) | log2 surviving fraction (Ov4Carbo; [1]) | log2 surviving fraction (Ov4Carbo; [2]) | log2 surviving fraction (Ov4Cis; [1]) | log2 surviving fraction (Ov4Cis; [2])
1 | CCC1=C[C@@H]2CN(C1)Cc1c([nH]c3ccccc13)[C@@](C(=O)OC)(c1cc3c(cc1OC)N(C)[C@H]1[C@@](O)(C(=O)OC)[C@H](OC(C)=O)[C@]4(CC)C=CCN5CC[C@]31[C@@H]54)C2 [Vinorelbine (Navelbine)] | -4.9 ± 1.1 | -6.56 ± 2.9 | -5.3 | -9.38 | -4.42 | -7.12
2 | CC(=O)O[C@]1(C(C)=O)CC[C@H]2[C@@H]3C=C(C)C4=CC(=O)CC[C@]4(C)[C@H]3CC[C@@]21C [Megestrol Acetate] | 0.543 ± 0.77 | 0.0705 ± 0.25 | 0.586 | -0.0647 | 1.37 | 0.119
3 | NC(=O)c1cn(Cc2c(F)cccc2F)nn1 [Rufinamide (Banzel)] | 1.46 ± 0.74 | 4.3 ± 2.7 | 1.66 | 2.38 | 0.97 | 1.84
4 | O=C(O[C@H]1C[N+]2(CCCOc3ccccc3)CCC1CC2)C(O)(c1cccs1)c1cccs1 [Aclidinium Bromide] | 0.704 ± 0.3 | 0.22 ± 2.9 | -0.512 | 0.882 | 0.665 | 0.0258
5 | CC[C@H](C)[C@H](N)C1=N[C@H](C(=O)N[C@@H](CC(C)C)C(=O)N[C@H](CCC(=O)O)C(=O)N[C@H](C(=O)N[C@H]2CCCCNC(=O)[C@H](CC(N)=O)NC(=O)[C@@H](CC(=O)O)NC(=O)[C@H](Cc3cnc[nH]3)NC(=O)[C@@H](Cc3ccccc3)NC(=O)[C@H]([C@@H](C)CC)NC(=O)[C@@H](CCCN)NC2=O)[C@@H](C)CC)CS1 [Bacitracin] | 0.699 ± 0.3 | 0.906 ± 0.84 | 0.646 | 1.08 | 0.336 | 0.724
6 | N=C(N)N/N=C/c1c(Cl)cccc1Cl [Guanabenz acetate] | -0.277 ± 0.24 | -1.15 ± 0.87 | 0.471 | -1.45 | -0.6 | 0.00473
7 | CC(C)NCC(O)c1ccccc1Cl (stereo unspecified) [Clorprenaline HCL] | 0.0604 ± 0.21 | -0.649 ± 0.3 | -0.155 | -0.435 | -2 | 0.728
8 | Cc1cccc(C)c1OCC(=O)N[C@@H](Cc1ccccc1)[C@@H](O)C[C@H](Cc1ccccc1)NC(=O)[C@H](C(C)C)N1CCCNC1=O [Lopinavir (ABT-378)] | -0.464 ± 0.73 | -2.11 ± 1.6 | -0.211 | -4.46 | -1.46 | -4.4
9 | C=C1/C(=C\C=C2/CCC[C@]3(C)[C@@H]([C@H](C)CCCC(C)(C)O)CC[C@@H]23)C[C@@H](O)C[C@@H]1O [Calcitriol (Rocaltrol)] | -0.552 ± 1 | -2.19 ± 0.22 | -1.42 | -3.67 | -1.3 | -1.47
10 | CCCSc1nc(N[C@@H]2C[C@H]2c2ccc(F)c(F)c2)c2nnn([C@@H]3C[C@H](OCCO)[C@@H](O)[C@H]3O)c2n1 [Ticagrelor] | -1.53 ± 0.67 | -0.612 ± 0.23 | -3.45 | -2.59 | -1.59 | -1.13
11 | CCCCCCOC(=O)NC(=N)c1ccc(NCc2nc3cc(C(=O)N(CCC(=O)OCC)c4ccccn4)ccc3n2C)cc1 [BIBR-1048 (Dabigatran)] | -0.914 ± 1.6 | -3.48 ± 5.3 | -5.14 | 0.638 | -2.28 | -0.968
12 | CCN[C@H]1C[C@H](C)S(=O)(=O)c2sc(S(N)(=O)=O)cc21 [Dorzolamide HCL] | -1.24 ± 0.64 | -1.39 ± 0.44 | -1.65 | -4.16 | -0.847 | -0.598
13 | CO[C@H]1/C=C/O[C@@]2(C)Oc3c(C)c(O)c4c(O)c(c5c(nc6cc(C)ccn65)c4c3C2=O)NC(=O)/C(C)=C\C=C\[C@H](C)[C@H](O)[C@@H](C)[C@@H](O)[C@@H](C)[C@H](OC(C)=O)[C@@H]1C [Rifaximin (Xifaxan)] | 1.01 ± 0.69 | -0.373 ± 0.6 | -0.124 | 0.451 | 0.299 | -0.186
14 | Cc1nc(Nc2ncc(C(=O)Nc3c(C)cccc3Cl)s2)cc(N2CCN(CCO)CC2)n1 | -2.8 ± 1.3 | -7.26 ± 2.2 | -5.04 | -11.9 | -1.74 | -4.18
15 | CCCC(=O)O[C@]1(C(=O)COC(C)=O)CC[C@H]2[C@@H]3C[C@H](F)C4=CC(=O)C=C[C@]4(C)[C@@]3(F)[C@@H](O)C[C@@]21C [Difluprednate] | 1.16 ± 0.13 | -0.0702 ± 1.3 | 1.2 | 0.164 | 0.81 | -1.06
16 | CC(C)OC(=O)C(C)(C)Oc1ccc(C(=O)c2ccc(Cl)cc2)cc1 [Fenofibrate (Tricor, Trilipix)] | 1.31 ± 0.47 | 0.314 ± 1.2 | 0.74 | 0.966 | -0.143 | 1.51
17 | NS(=O)(=O)c1cc2c(cc1Cl)NCNS2(=O)=O [Hydrochlorothiazide] | -0.36 ± 0.69 | 0.586 ± 0.44 | -0.00736 | 1.22 | 0.487 | -0.0762
18 | C#C[C@]1(O)CC[C@H]2[C@@H]3CCc4cc(O)ccc4[C@H]3CC[C@@]21C [Ethinyl Estradiol] | -2.19 ± 0.69 | -2.63 ± 0.99 | -0.131 | -1.64 | -1.34 | -2.82
19 | C[C@]12C=CC(=O)C=C1CC[C@H]1[C@@H]3C[C@@H](O)[C@](O)(C(=O)CO)[C@@]3(C)C[C@H](O)[C@@]12F [Triamcinolone (Aristocort)] | 0.37 ± 0.54 | 0.441 ± 0.84 | -0.387 | 0.567 | 0.513 | -0.45
20 | C#C[C@]1(O)C=C[C@H]2[C@@H]3CCC4=CC(=O)CC[C@@H]4[C@H]3CC[C@@]21CC [Gestodene] | -0.442 ± 0.39 | -1.36 ± 0.028 | -0.61 | -1.96 | -0.363 | -0.625
21 | CC(C)[C@H](N)C(=O)OCC(CO)OCn1cnc2c(=O)nc(N)[nH]c21 (stereo partly specified) [valganciclovir hydrochloride] | 0.0267 ± 0.1 | -0.0617 ± 0.3 | 0.67 | 0.582 | 0.0834 | 0.396
